The values below come from PMC4127532 (Journal of Medicinal Chemistry, 2014).

This assay relates to bovine parvovirus. The format is cell-based.

Turning to `CCCC1(N)C2CC3CC(C2)CC1C3` (stereo not shown) [Compound 6, 2-n-Propyltricyclo[3.3.1.1^3,7]decan-2-amine], the “effect on virus growth” value is “no effect”.
